Data taken from paper PMC12136788.
Some of the results follow.

T1: UNK ZnF1-6 (called full-length) (human, UniProt Q9C0B0 30-357)
T1 sequence: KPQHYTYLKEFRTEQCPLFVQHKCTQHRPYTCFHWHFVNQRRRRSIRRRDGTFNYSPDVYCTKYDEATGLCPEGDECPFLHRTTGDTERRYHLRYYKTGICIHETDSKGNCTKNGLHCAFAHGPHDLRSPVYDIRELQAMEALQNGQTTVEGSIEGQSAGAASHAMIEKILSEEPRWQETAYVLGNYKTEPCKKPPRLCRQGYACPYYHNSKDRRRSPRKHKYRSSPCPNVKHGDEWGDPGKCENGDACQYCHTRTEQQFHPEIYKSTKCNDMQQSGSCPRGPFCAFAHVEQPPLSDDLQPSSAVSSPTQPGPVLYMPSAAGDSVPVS

B1: ENSG00000170502:stop:overlap|stop_codon|ENSG00000170502|stop_codon|NA|stop_codon (ssRNA)
RNA: GGGAGUUCUACAGUCCGACGAUCUGGCUGAGAAACGAGAUGCACACUGGAGCGAGGACUCUGAAGCUGACUGCCAUGCGUUGUAGCUGAUGGUCUCCGUGUAAGCCAAAGGCCCACAGAGGAGCAUAUACUGAAAAGAAGGCACAACAGAGGAUUGAGCAUCA
B2: chr1:35359206:35359314:+|CDS|ENSG00000146463|unk|FALSE|bound_elsewhere (ssRNA)
RNA: GGGAGUUCUACAGUCCGACGAUCAAAGACUUUCCUAAACAAUUUGAUCAGGUUUCUGUCUUUAAAUCAAUACGGAAAGAUUUUAGUCUAGUAAGAGAAAACAGCAAAGAGACAUUUUCUGGAAAGGAGAAAAAUAGAGACCUACAACAGAGGAUUGAGCAUCA
B3: chr1:110340924:110341033:+|CDS|ENSG00000162775|unk|FALSE|unique (ssRNA)
RNA: GGGAGUUCUACAGUCCGACGAUCUGCUGCCUGGACCCAUAUGCGGGGCUUCCCACUUGGUGGCCCAGAUCGACGCCUUAGAGUAGACUUUGCCGACACCGAACAUCGUUACCAGCAGCAGUAUCUGCAGCCUCUGCCCUUGACCAACAGAGGAUUGAGCAUCA
B4: chr9:35056615:35056731:-|3pUTR|ENSG00000165280|msi1|total|mutant (ssRNA)
RNA: GGGAGUUCUACAGUCCGACGAUCCCCUAUCCAACCUGGGCCGGUGGGCCGGGGCCACAGUUGCUGGAUGUUUAUACCGAGAGCCGGUUGAUUUAUUUUACAUGCUUUUGAGUUAAUGUUGGAAAACUAAUCACAAGCAGUUUCCAACAGAGGAUUGAGCAUCA
B5: ENSG00000086827:stop:overlap|stop_codon|ENSG00000086827|stop_codon|NA|stop_codon (ssRNA)
RNA: GGGAGUUCUACAGUCCGACGAUCUAAUUCGUGCCUUGUUUCAGAACACAGAAAGAAGAGCAGCUGCCCUUGCUAAAAUUAAAUAGCUCCAUCUUCUUAAGAAAGCUAUGUCUUGAAUAUGUGGAUUCUUCCCUUGGCAUAAUUCAACAGAGGAUUGAGCAUCA
B6: chr11:83166318:83166419:+|CDS|ENSG00000165494|unk|total|mutant (ssRNA)
RNA: GGGAGUUCUACAGUCCGACGAUCGGGACAAAACCAGGGAGAUCGAGUACCCGAAAGCGAUCAAGAUCUCGAUCACCCAAGUCCCGGUCACCAAUUAUACAUUCCCCAAAGAGAAGAGACCGGCGGUCACCCAAACGAAGGCAACAACAGAGGAUUGAGCAUCA
B7: chr2:222942681:222942782:+|3pUTR|ENSG00000123983|msi1|FALSE|unique (ssRNA)
RNA: GGGAGUUCUACAGUCCGACGAUCAAAAUUAGUGUUUUUCCUAGUUUGCACUGAUGCGUGUAUGGAUGUGUGUGAGUCAGUGGUAGCUUAUUUAAAAAGCACCUUAUCCUUUCUCCCAUAACCUUUGUACACUAAAAAAUGAAACAACAGAGGAUUGAGCAUCA
B8: chr5:154817497:154817598:+|3pUTR|ENSG00000155506|msi1_unk|total|mutant (ssRNA)
RNA: GGGAGUUCUACAGUCCGACGAUCUUAUUGAGAGUAUCUGCUUUCCAGGCUGAAGUGAUUCAUUCAUUAUUCCCGUCCUGCUUCCGUCCUUUGUAAUUUGUGGUAAUUAUGCUUUUCUUUUUAAUACAAAAAAAUGUAUAAAAACAACAGAGGAUUGAGCAUCA
B9: chr19:53069209:53069329:-|CDS|ENSG00000170949|unk|FALSE|unique (ssRNA)
RNA: GGGAGUUCUACAGUCCGACGAUCUGGAGAGAAACCUUACAAGUGCAAUGAGUGCGGCAAAGCCUUUAGUGUUCGUUCAAGCCUAGCAAUCCAUCAGACAAUCCACACUGGAGAAAAACCUUACAAAUGUAAUGAAUGUGGCAACAACAGAGGAUUGAGCAUCA
B10: ENSG00000107863:be:win_3501|CDS|ENSG00000107863|bound_else_gene|NA|bound_elsewhere_windowed (ssRNA)
RNA: GGGAGUUCUACAGUCCGACGAUCAUGUUGCAAAUUAGUUGAAGAAAGAGGUCUUGAAUAUACAGGUAUUUAUAGAGUUCCUGGAAAUAAUGCAGCCAUCUCAAGUAUGCAAGAAGAACUCAACAAGGGAAUGGCUGAUAUUGACAACAGAGGAUUGAGCAUCA
B11: chr7:92618090:92618217:-|CDS|ENSG00000105810|unk|total|mutant (ssRNA)
RNA: GGGAGUUCUACAGUCCGACGAUCUAUGUCCAUGUGUGGUUCUUUUGCCGCGUGAUUGGACUCCCAGGAGAAGAAGACUGGCCCCGAGAUGUUGCCCUUCCCAGGCAGGCUUUUCAUUCAAAAUCUGCCCAACCAAUUGAGAAGCAACAGAGGAUUGAGCAUCA
B12: chr1:235182574:235182675:-|CDS|ENSG00000054267|unk|FALSE|unique (ssRNA)
RNA: GGGAGUUCUACAGUCCGACGAUCUUUGACCAACAACAGAAAUGAUCUUAUUUCAAAGGAGGAACAGAACAGUUCAUCUUUGCUAGAAGAAAACAAAGUUCAUGCAGAUUUGGUAAUAUCCAAACCAGUGUCAAAAUCUCCAGACAACAGAGGAUUGAGCAUCA
B13: chr7:158734047:158734148:-|3pUTR|ENSG00000117868|msi1_unk|total|mutant (ssRNA)
RNA: GGGAGUUCUACAGUCCGACGAUCCUACCCGGAACACACCCUCUCACAGACGUACCAAUGUUAUUUUUAUAAUUUCAUGGAUUCCGUUAUACAUACCUUAACCGUUUUAUAAAAUUGUUGACAUUUCAGGCAAAUUUGGCCAAUCAACAGAGGAUUGAGCAUCA
B14: chr6:136999970:137001557:-|three_prime_utr|ENSG00000016402|control|control|control (ssRNA)
RNA: GGGAGUUCUACAGUCCGACGAUCAAGUUUUUUCCAGUUUGUCAGUGUCUGUGAGAAUUACUUAUUUCUUUUCUCUAUUCUCAUAGCACGUGUGUGAUUGGUUCAUGCAUGUAGGUCUCUUAACAAUGAUGGUGGGCCUCUGGACAACAGAGGAUUGAGCAUCA
B15: chr1:17067826:17067927:-|3pUTR|ENSG00000117115|msi1|total|mutant (ssRNA)
RNA: GGGAGUUCUACAGUCCGACGAUCCCAGAUUCAUUCCCUGGCUCCAACUGAAAAGACUCAGUUUCAAUCGUUAAAAGUUCCUUCCGGGCCAGAAGAAUAAAUGAAUUAUAAUCCCAUUUUGAAGAACCGAUUUAUAACCAAUGACAACAGAGGAUUGAGCAUCA
B16: chr3:50299934:50300035:-|3pUTR|ENSG00000114378|unk|FALSE|unique (ssRNA)
RNA: GGGAGUUCUACAGUCCGACGAUCCGUUGCCCAAGGUUGCACAGCAAGAAAAGGGAGAAGUUGAGAUUCAAACCCAGGCUGUCUAGCUCCGGGGGUACAGCCCUUGCACUCCUACUGAGUUUGUGGUAACCAGCCCUGCACGACCAACAGAGGAUUGAGCAUCA
B17: ENSG00000107863:be:win_3301|CDS|ENSG00000107863|bound_else_gene|NA|bound_elsewhere_windowed (ssRNA)
RNA: GGGAGUUCUACAGUCCGACGAUCAAGGAAGAGUCGGAAAGGAAACUUCUCAGUAAAGAUGAUACCAGUCCCCCAAAAGACAAAGGCACAUGGAGAAAAGGCAUUCCAAGUAUCAUGAGAAAGACAUUUGAGAAAAAGCCAACUCAACAGAGGAUUGAGCAUCA
B18: ENSG00000124766:be:win_1501|3pUTR|ENSG00000124766|bound_else_gene|NA|bound_elsewhere_windowed (ssRNA)
RNA: GGGAGUUCUACAGUCCGACGAUCGACAGACGAAGAGUUUAAAGAGAAAAGGGAAAAAAGAAAGAAAAAGUAAGCAGGGCUGGCUUCGCCCGCGUUCUCGUCGUCGGAUCAAGGAGCGCGGCGGCGUUUUGGACCCGCGCUCCCCAACAGAGGAUUGAGCAUCA
B19: chr20:59938049:59938150:-|3pUTR|ENSG00000132825|unk|FALSE|unique (ssRNA)
RNA: GGGAGUUCUACAGUCCGACGAUCAAGUUUGAAACUAAGCAUUUUAAGAAGUCUUGCCUCAGUUAUUUCAGUUUUCAGGUGACUAGAGAAUUUCAGGCAACAGUGCCCUUUGCAAUUACCUUUUUGAUGAUUAAGGUGACUAUUCAACAGAGGAUUGAGCAUCA
B20: chr17:81509976:81510077:-|3pUTR|ENSG00000184009|msi1|total|mutant (ssRNA)
RNA: GGGAGUUCUACAGUCCGACGAUCUCUCGAUUCUUUGAAGAGAUGACAACAAAUUUUGGUUUUCUACUGUUAUGUGAGAACAUCCGGCCCCAGCAACACGUCAUUGUGUAAGGAAAAAUAAAAGUGCUGCCGUAACCAAUGAAUCAACAGAGGAUUGAGCAUCA
B21: chrX:30854639:30854752:-|CDS|ENSG00000157625|unk|FALSE|bound_elsewhere (ssRNA)
RNA: GGGAGUUCUACAGUCCGACGAUCUUCAGCUCUCCACAGCAUCAAGUGCAACCUUCCCAGUUGGGCCACAUCUUUAUGCCACCUAGUCCUUCAACUACUCCACCCCAUCCAUAUCAACAAGGACCUCCUAGCUAUCAGAAACAGCAACAGAGGAUUGAGCAUCA
B22: chr12:6965580:6965681:-|3pUTR|ENSG00000215021|unk|total|mutant (ssRNA)
RNA: GGGAGUUCUACAGUCCGACGAUCGUCAUUAUCUAUCUUUUUUUUCCUACAGUGACAGCCUCAUCAAGGGUAAGAAAUGAGCCCCGUCACCAAGAACUCCACCCCCAGAGGAAGUGGAUCUGCUUCUCCAGUUUUUGAGGAGCCCAACAGAGGAUUGAGCAUCA

These binders were tested against T1, UNK ZnF1-6 (called full-length) (assay: nsRBNS (natural sequence RNA bind-n-seq); RBNS binding buffer (assumed for nsRBNS): 25 mM Tris pH 7.5, 150 mM KCl, 3 mM MgCl2, 0.01% Triton X-100, 500 ug/ml BSA, 20 U/ml SUPERase-In, 4 C; UNK is unkempt and MSI1 is Musashi-1; names of the RNAs are library labels; protein concentration not given here; high values mean tight binding).

Binder | binding signal [enrichment R]
B1 | 0.907
B2 | 0.815
B3 | 0.796
B4 | 0.742
B5 | 1.49
B6 | 0.487
B7 | 0.982
B8 | 0.631
B9 | 0.653
B10 | 0.818
B11 | 1.26
B12 | 0.258
B13 | 0.624
B14 | 0.961
B15 | 0.465
B16 | 0.571
B17 | 0.363
B18 | 0.93
B19 | 0.42
B20 | 0.274
B21 | 1.55
B22 | 1.61
